Assay results: article PMC6168700
No constants are given. Whether binding was seen depends on the method and setting. Some binding calls cover weakened binding; strength is not graded here. For part of these data: Sequences can lack the tags named with a protein.

Sequences of proteins named here, by UniProt entry; tags and fusion partners are left off.
UniProt Q03532: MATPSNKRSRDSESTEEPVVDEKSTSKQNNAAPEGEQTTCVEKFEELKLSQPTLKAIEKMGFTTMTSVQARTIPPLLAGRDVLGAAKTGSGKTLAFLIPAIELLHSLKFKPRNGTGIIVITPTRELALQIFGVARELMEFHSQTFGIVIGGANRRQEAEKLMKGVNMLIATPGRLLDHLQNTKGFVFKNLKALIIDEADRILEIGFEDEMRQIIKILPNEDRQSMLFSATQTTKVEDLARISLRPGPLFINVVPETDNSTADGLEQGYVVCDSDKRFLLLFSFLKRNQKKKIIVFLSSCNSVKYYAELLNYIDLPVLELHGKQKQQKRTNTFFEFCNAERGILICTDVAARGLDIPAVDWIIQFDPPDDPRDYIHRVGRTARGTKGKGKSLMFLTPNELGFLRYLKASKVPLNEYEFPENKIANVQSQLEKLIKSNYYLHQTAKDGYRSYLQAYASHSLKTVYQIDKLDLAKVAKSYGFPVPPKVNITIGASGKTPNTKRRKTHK

Columns and labels:
[1] = molecular target: T1, Full-length Utp22, His-tagged (UniProt P53254); experiment: pull-down; His-tagged Kre33, Has1 or Utp22 held on Ni-NTA beads (2–4 μg), mixed with 2–4 μg of a purified Rrp5 construct in ~100 μL, 30 min on ice, 4 washes with wash buffer; SDS/PAGE, Coomassie Blue; both purified
T1 sequence: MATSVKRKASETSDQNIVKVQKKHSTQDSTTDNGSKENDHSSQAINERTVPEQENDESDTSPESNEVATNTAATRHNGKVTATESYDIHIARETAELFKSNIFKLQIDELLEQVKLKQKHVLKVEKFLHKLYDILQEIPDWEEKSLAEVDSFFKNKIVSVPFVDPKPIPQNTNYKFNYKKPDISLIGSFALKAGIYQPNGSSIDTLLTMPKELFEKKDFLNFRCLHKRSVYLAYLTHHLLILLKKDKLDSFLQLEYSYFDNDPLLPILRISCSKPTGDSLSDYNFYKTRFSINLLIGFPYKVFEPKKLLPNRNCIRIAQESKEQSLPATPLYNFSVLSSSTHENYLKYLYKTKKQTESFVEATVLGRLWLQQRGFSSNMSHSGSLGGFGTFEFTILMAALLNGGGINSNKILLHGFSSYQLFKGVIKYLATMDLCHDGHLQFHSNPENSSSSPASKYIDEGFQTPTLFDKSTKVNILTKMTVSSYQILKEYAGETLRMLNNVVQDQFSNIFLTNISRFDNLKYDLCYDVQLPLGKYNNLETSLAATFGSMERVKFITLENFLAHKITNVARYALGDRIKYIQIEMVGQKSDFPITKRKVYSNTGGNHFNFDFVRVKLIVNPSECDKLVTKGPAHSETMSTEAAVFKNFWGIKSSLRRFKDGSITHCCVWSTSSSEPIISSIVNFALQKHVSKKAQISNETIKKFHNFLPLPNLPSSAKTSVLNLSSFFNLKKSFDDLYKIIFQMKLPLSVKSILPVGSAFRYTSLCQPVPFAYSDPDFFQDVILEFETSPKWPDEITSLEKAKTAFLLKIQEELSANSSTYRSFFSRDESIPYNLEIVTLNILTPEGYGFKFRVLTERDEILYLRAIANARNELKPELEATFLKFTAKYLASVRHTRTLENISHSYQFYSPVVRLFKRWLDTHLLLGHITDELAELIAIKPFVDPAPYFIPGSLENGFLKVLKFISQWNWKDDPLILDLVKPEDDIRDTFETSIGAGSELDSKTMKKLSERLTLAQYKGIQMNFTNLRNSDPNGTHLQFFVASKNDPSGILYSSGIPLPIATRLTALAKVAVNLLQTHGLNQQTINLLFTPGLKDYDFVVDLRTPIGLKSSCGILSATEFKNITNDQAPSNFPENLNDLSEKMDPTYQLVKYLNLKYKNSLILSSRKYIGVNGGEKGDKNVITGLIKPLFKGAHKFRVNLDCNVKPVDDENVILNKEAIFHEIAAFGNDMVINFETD

[2] = molecular target: Full-length Has1, His-tagged (UniProt Q03532); experiment: as above
[3] = molecular target: T2, Full-length Kre33, His-tagged (UniProt P53914); experiment: as above
T2 sequence: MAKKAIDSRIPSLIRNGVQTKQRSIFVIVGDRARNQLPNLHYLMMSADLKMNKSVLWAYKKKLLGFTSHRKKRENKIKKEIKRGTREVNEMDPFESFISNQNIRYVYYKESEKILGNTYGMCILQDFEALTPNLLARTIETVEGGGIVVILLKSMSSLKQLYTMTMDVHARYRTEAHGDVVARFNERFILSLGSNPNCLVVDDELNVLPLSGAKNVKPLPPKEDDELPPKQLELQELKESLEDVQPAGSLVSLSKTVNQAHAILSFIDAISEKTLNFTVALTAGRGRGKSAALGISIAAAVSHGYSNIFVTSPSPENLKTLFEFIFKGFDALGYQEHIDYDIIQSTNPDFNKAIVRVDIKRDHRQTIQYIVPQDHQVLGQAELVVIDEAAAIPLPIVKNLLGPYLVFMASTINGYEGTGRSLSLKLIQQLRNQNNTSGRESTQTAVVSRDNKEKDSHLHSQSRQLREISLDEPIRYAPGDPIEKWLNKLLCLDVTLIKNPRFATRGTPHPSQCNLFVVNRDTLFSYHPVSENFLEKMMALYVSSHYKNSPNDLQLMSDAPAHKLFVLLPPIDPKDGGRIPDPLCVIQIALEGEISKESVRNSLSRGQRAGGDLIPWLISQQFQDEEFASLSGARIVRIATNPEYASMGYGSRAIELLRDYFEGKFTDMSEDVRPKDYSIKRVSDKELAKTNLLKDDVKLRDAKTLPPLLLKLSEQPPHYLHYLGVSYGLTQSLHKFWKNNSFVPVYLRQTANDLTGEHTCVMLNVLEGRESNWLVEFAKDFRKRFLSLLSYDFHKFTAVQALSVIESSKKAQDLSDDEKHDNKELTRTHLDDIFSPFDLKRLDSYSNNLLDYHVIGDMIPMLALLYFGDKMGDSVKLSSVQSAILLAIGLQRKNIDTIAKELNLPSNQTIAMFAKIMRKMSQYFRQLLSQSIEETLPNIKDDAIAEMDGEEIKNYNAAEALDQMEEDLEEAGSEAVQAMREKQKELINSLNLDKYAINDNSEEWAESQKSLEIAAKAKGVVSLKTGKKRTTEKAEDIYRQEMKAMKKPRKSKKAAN

[4] = molecular target: T3, Full-length Rok1, His-tagged (UniProt P45818); experiment: pull-down; His-tagged Rok1 held on Ni-NTA beads (2–4 μg), mixed with 2–4 μg of a purified Rrp5 construct in ~100 μL, in the presence of 2 mM ATP, 30 min on ice, 4 washes with wash buffer; SDS/PAGE, Coomassie Blue; both purified
T3 sequence: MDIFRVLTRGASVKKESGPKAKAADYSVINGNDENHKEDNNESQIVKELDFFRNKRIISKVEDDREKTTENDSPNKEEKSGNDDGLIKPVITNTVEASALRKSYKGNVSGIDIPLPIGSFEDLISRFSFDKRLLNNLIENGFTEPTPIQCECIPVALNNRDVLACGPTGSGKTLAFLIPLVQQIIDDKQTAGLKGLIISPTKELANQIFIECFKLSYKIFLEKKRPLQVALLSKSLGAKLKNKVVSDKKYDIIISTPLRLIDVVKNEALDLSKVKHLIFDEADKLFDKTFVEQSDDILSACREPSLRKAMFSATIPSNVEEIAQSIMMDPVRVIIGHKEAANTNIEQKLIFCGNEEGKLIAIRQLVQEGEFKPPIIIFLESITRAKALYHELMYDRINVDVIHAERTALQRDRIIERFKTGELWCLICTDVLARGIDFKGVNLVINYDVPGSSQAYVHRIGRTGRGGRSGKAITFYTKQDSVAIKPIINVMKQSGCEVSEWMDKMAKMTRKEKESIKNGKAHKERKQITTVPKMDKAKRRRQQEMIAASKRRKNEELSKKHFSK

B1: Rrp5 (1400–1729), the TPR region alone (domain or fragment, UniProt Q05022 1400-1729)
chain: GLSLSAGFDWTASILDQAQEEEESDQDQEDFTENKKHKHKRRKENVVQDKTIDINTRAPESVADFERLLIGNPNSSVVWMNYMAFQLQLSEIEKARELAERALKTINFREEAEKLNIWIAMLNLENTFGTEETLEEVFSRACQYMDSYTIHTKLLGIYEISEKFDKAAELFKATAKKFGGEKVSIWVSWGDFLISHNEEQEARTILGNALKALPKRNHIEVVRKFAQLEFAKGDPERGRSLFEGLVADAPKRIDLWNVYVDQEVKAKDKKKVEDLFERIITKKITRKQAKFFFNKWLQFEESEGDEKTIEYVKAKATEYVASHESQKADE
binding [1]: no binding (tested: 2–4 μg in ~ 100 μL)
binding [2]: no binding (tested: 2–4 μg in ~ 100 μL)
binding [3]: no binding (tested: 2–4 μg in ~ 100 μL)
binding [4]: binds weakly

B2: Rrp5 (1083–1729), the 3 last S1 domains and the TPR region (domain or fragment, UniProt Q05022 1083-1729)
chain: STIKVGDELPGRVLKIAEKYVLLDLGNKVTGISFITDALNDFSLTLKEAFEDKINNVIPTTVLSVDEQNKKIELSLRPATAKTRSIKSHEDLKQGEIVDGIVKNVNDKGIFVYLSRKVEAFVPVSKLSDSYLKEWKKFYKPMQYVLGKVVTCDEDSRISLTLRESEINGDLKVLKTYSDIKAGDVFEGTIKSVTDFGVFVKLDNTVNVTGLAHITEIADKKPEDLSALFGVGDRVKAIVLKTNPEKKQISLSLKASHFSKEAELASTTTTTTTVDQLEKEDEDEVMADAGFNDSDSESDIGDQNTEVADRKPETSSDGLSLSAGFDWTASILDQAQEEEESDQDQEDFTENKKHKHKRRKENVVQDKTIDINTRAPESVADFERLLIGNPNSSVVWMNYMAFQLQLSEIEKARELAERALKTINFREEAEKLNIWIAMLNLENTFGTEETLEEVFSRACQYMDSYTIHTKLLGIYEISEKFDKAAELFKATAKKFGGEKVSIWVSWGDFLISHNEEQEARTILGNALKALPKRNHIEVVRKFAQLEFAKGDPERGRSLFEGLVADAPKRIDLWNVYVDQEVKAKDKKKVEDLFERIITKKITRKQAKFFFNKWLQFEESEGDEKTIEYVKAKATEYVASHESQKADE
binding [1]: no binding (tested: 2–4 μg in ~ 100 μL)
binding [2]: no binding (tested: 2–4 μg in ~ 100 μL)
binding [3]: no binding (tested: 2–4 μg in ~ 100 μL)
binding [4]: no binding (tested: 2–4 μg in ~ 100 μL)

B3: Rrp5 (1083–1343), the last 3 S1 domains only (domain or fragment, UniProt Q05022 1083-1343)
chain: STIKVGDELPGRVLKIAEKYVLLDLGNKVTGISFITDALNDFSLTLKEAFEDKINNVIPTTVLSVDEQNKKIELSLRPATAKTRSIKSHEDLKQGEIVDGIVKNVNDKGIFVYLSRKVEAFVPVSKLSDSYLKEWKKFYKPMQYVLGKVVTCDEDSRISLTLRESEINGDLKVLKTYSDIKAGDVFEGTIKSVTDFGVFVKLDNTVNVTGLAHITEIADKKPEDLSALFGVGDRVKAIVLKTNPEKKQISLSLKASHFSKE
binding [1]: no binding (tested: 2–4 μg in ~ 100 μL)
binding [2]: no binding (tested: 2–4 μg in ~ 100 μL)
binding [3]: no binding (tested: 2–4 μg in ~ 100 μL)
binding [4]: no binding (tested: 2–4 μg in ~ 100 μL)
